From article PMC10519607
No constants are given. Whether binding was seen depends on the method and setting. In cells and extracts the contact can be indirect. Some results given as binding are weak or reduced against the parent protein; the word gives no strength.

The chains behind the UniProt entries cited, without tags or fusion partners.
UniProt P03101: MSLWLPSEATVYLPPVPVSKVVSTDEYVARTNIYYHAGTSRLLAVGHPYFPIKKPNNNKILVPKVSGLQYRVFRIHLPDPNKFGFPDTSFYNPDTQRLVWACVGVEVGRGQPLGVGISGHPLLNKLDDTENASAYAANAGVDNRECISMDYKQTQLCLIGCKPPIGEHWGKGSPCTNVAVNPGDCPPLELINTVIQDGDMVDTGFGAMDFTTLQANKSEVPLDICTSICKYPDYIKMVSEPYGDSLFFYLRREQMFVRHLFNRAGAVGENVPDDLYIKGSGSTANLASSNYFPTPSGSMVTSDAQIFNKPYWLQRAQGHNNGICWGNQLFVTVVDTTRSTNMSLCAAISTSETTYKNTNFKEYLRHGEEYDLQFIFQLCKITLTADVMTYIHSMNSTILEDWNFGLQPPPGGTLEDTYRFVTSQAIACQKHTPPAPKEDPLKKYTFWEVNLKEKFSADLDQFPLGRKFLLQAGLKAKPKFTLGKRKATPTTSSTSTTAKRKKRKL
UniProt P03107: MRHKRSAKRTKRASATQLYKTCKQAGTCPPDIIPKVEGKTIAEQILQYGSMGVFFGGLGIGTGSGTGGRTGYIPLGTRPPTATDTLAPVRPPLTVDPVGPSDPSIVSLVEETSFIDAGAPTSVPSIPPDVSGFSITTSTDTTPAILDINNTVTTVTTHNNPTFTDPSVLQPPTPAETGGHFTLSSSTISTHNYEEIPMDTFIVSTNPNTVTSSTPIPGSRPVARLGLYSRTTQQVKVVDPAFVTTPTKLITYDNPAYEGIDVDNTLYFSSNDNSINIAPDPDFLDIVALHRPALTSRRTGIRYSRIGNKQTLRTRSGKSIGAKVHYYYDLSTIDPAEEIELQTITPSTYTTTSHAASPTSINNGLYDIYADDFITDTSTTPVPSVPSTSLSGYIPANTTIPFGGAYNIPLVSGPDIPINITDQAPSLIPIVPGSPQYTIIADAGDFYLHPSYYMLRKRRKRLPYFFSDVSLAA

How the values were obtained:
[1] = molecular target: T1, Rab9a (human (endogenous in HeLa S3)) (UniProt P51151); assay: condition: only PsV with the 3R mutant L2 (RKRRKR replaced by RRR), which is impaired for protrusion into the cytoplasm; proximity ligation; As a1, with HPV16 PsV containing HA-tagged 3R mutant L2 (RKRRKR replaced by RRR) compared with HA-tagged wild-type L2; 8 hpi, antibodies to L1 and Rab9a
T1 sequence: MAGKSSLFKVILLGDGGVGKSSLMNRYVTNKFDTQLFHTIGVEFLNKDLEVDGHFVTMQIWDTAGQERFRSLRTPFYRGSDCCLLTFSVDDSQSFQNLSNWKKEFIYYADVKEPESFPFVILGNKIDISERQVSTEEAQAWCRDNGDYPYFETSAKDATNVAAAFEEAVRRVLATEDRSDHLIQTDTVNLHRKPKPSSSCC

[2] = molecular target: T1, Rab9a (human (endogenous in HeLa S3)); assay: proximity ligation; HeLa S3 cells, mock-infected or infected with HPV16 PsV (MOI ~200), fixed at 3.5-16 hpi, Duolink PLA with a mouse and a rabbit antibody. Cells were in part transfected with siNC, siRab9a, siRab7 or siDENND2D, or stably expressing DN Rab7. DMSO controls. For L1-Rab9a also BafA or XXI (markedly reduced), for L1-VPS35 also XXI (greatly reduced).
[3] = molecular target: T1, Rab9a (human (endogenous in HeLa S3)); assay: co-IP; As a5, with 100 nM Bafilomycin A1 added 30 min before infection
[4] = molecular target: T1, Rab9a (human (endogenous in HeLa S3)); assay: condition: only with 2 μM γ-secretase inhibitor XXI; proximity ligation; As a1, with 2 μM γ-secretase inhibitor XXI added to the medium 30 min before infection; 3.5 hpi, antibodies to FLAG (L2) and Rab9a
[5] = molecular target: T1, Rab9a (human (endogenous in HeLa S3)); assay: condition: only with 100 nM Bafilomycin A1 (endosomal acidification inhibited); proximity ligation; As a1, with 100 nM Bafilomycin A1 added to the medium 30 min before infection (3.5 hpi for FLAG(L2)-Rab9a; 8 hpi for L1-VPS35)
[6] = molecular target: T1, Rab9a (human (endogenous in HeLa S3)); assay: co-IP; HeLa S3 infected with HPV16 PsV L2-3XFLAG (MOI ~100). Cross-linked in cells with 1.5 mM DSP for 30 min at 6.5 hpi. Lysed in 20 mM HEPES pH 7.4, 50 mM NaCl, 5 mM MgCl2, 1% DDM, 0.05% Triton X-100. IP with anti-Rab9a and protein G magnetic beads, blot with anti-FLAG.

Row | Substance | binding [1] | binding [2] | binding [3] | binding [4] | binding [5] | binding [6]
1 | HPV16 major capsid protein L1 (from UniProt P03101 1-505) | no binding | binds | – | – | – | –
2 | HPV16 minor capsid protein L2 with C-terminal 3xFLAG tag (from UniProt P03107 1-473) | – | binds | no binding (condition: with 100 nM Bafilomycin A1) | no binding | no binding | binds
